Measured values as given in PubChem BioAssay AID887 (National Center for Advancing Translational Sciences (NCATS), 2007).
The campaign covered roughly 74,000 compounds. About 1,100 (1.5%) were called active. The inconclusive results got no clear call from the source; some entries with a clear call stand among them for comparison. The call rests on the fitted dose curve; in most records, active means well fitted inhibition curve with a large enough effect; inconclusive means small, poorly fitted or top-dose-only effect; inactive means no such curve, though single readings can be large or run the other way. Potencies of inconclusive entries are left out as doubtful fits.

What follows are compounds tested against Polyunsaturated fatty acid lipoxygenase ALOX15 (Homo sapiens) (UniProt P16050) (assay: qHTS Assay for Inhibitors of 15-hLO (15-human lipoxygenase)). Conditions: purified 15hLO-1, xylenol orange hydroperoxide absorbance; activity change, negative = inhibition: at 57.1 µM (top of the series) unless noted.
UniProt P16050, sequence (P16050 whole entry, looked up): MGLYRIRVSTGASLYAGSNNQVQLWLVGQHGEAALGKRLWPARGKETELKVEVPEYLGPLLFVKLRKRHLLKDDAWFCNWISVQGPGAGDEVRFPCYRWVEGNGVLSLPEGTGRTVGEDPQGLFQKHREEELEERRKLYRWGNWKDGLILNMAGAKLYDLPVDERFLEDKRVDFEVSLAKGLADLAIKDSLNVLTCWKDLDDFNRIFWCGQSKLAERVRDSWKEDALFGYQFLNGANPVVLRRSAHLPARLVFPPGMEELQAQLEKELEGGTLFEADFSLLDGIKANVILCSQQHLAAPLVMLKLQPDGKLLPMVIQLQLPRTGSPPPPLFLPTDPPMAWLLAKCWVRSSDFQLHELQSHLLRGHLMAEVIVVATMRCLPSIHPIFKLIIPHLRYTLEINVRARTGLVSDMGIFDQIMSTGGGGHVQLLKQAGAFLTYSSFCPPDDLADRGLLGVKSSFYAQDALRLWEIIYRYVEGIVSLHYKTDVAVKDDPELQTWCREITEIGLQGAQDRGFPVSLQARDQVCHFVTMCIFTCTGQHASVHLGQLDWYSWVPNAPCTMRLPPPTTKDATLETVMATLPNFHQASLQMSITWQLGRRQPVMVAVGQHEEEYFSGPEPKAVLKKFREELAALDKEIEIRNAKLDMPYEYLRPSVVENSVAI
How it was run: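 Readout: Fe(III)-xylenol orange absorbance, 573-to-405 nm ratio as reaction progress. Enzyme 40 nM purified human 15hLO-1, substrate 50 uM arachidonic acid, 6 min RT after 15 min compound preincubation; Hepes pH 7.5 buffer with Triton X-100.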
Further: nearly all actives have a fitted effect of over 55% in size.
On the % scale 0 is the no-effect control and ±100 the full control effect; potency means the concentration at half of the fitted maximal effect; tags describe the fitted curve by direction and shape.

Q: COc1ccc2c(c1)N(CC[C@H]1CCCCN1C)c1ccccc1S2 was tested. Which activity change, negative = inhibition did it give?
A: The activity change, negative = inhibition was inactive: 6.72% [at 11.4 µM].

Q: How did the Potency turn out when Cc1ccc2cc(C#N)c(N3CCCC3)nc2c1C was run?
A: Its Potency is inconclusive [inhibitor, full curve].

Q: Which Potency does the source give for COc1ccc2[nH]cc(CCNc3cc(-c4ccccc4C(F)(F)F)ncn3)c2c1 here?
A: Its Potency is active: 15.8 µM.

Q: How did the Potency turn out when COc1ccc(C2CC(=O)N3CN(c4ccccc4F)CSC3=C2C#N)cc1OC (centres undefined) was run?
A: The Potency was active: 0.316 µM.

Q: Which “activity change, negative = inhibition” value does the source give for O=C(Nc1ccc2c(c1)OCO2)c1cccc2c1C(=O)N(Cc1cccnc1)C2 here?
A: The value was inactive: -20.9%.

Q: For Cc1cccc(N(CC(=O)NCc2ccccc2)C(=O)Cn2nnc(-c3ccc(C)o3)n2)c1, which “activity change, negative = inhibition” value is on record?
A: The value was inactive: -4.58%.

Q: COc1ccc(-c2c3c(=O)n(C)c(=O)n(C)c3cn2C2CCCCC2)cc1 was tested. Which Potency did it give?
A: Its Potency is active: 25.1 µM.

Q: Which “activity change, negative = inhibition” value does the source give for O=C(CN1C(=O)CCC1=O)Nc1ccc2c3c(cccc13)CC2 here?
A: The value was inactive: 6.73%.

Q: With COCCn1c(=O)c(-c2cn(C)c3ccccc23)nc2cnc(Oc3ccccc3)nc21 as the compound, how does the “activity change, negative = inhibition” value read?
A: Its value is inactive: -0.244%.

Q: With COc1cccc(OCc2nnc(SC)n2C)c1 as the compound, how does the “activity change, negative = inhibition” value read?
A: The value was inactive: 13.7%.

Q: O=C(O)c1cc(-c2ccc(-c3ccccc3)cc2)nc2cc3ccccc3cc12 was tested. Which activity change, negative = inhibition did it give?
A: The activity change, negative = inhibition was inactive: 8.86% [at 11.4 µM].

Q: Which Potency does the source give for CCc1ccc(CNc2ccc(O)cc2)cc1 here?
A: Its Potency is inconclusive [inhibitor, single point].

Q: With C=C(C)CSc1nc(N)c(C#N)c(-c2ccc(C)cc2)c1C#N as the compound, how does the Potency read?
A: The Potency was active: 31.6 µM.

Q: Which “activity change, negative = inhibition” value does the source give for CCOc1ccc(-n2c(SCC(=O)NCc3ccco3)nc3c([nH]c4ccccc43)c2=O)cc1 here?
A: Its value is inactive: -12.2%.

Q: How did the Potency turn out when Oc1ccc(O)cc1 was run?
A: Its Potency is inconclusive [inhibitor, single point].

Q: How did the “activity change, negative = inhibition” value turn out when Cc1cnc(-c2nnc(N(C)C(=O)C3CCOC3)s2)cn1 (centres undefined) was run?
A: The value was inactive: -4.62%.

Q: Which Potency does the source give for O=C(COc1ccc2ccccc2c1)N1CCN(c2ccccc2O)CC1 here?
A: The Potency was inconclusive [inhibitor, partial curve].

Q: O=C(CSc1ncnc2c1cnn2-c1ccccc1Cl)N1CCN(C(=O)c2ccco2)CC1 was tested. Which Potency did it give?
A: Its Potency is inconclusive [inhibitor, partial curve].

Q: Which Potency does the source give for CSC1=C(C#N)C2(CCCC2)C(C#N)=C(N)N1 here?
A: The Potency was inconclusive [inhibitor, single point].

Q: COc1cc(NC(=O)C2CCCCN2)ccc1OCC(C)C (centres undefined) was tested. Which “activity change, negative = inhibition” value did it give?
A: Its value is inactive: -27.6%.

Q: Which “activity change, negative = inhibition” value does the source give for COc1ccc(-c2noc(N3CCC(C(=O)N4CCN(c5ccccn5)CC4)CC3)n2)cc1 here?
A: Its value is inactive: -5.72%.

Q: How did the “activity change, negative = inhibition” value turn out when CSCC[C@H](NC(=O)NCc1ccc(F)cc1)C(=O)O was run?
A: Its value is inactive: -11%.

Q: With CCOC(=O)C1C(=O)NC(SCC(=O)Nc2nccs2)=C(C#N)C1c1ccccc1OCC (centres undefined) as the compound, how does the Potency read?
A: Its Potency is inconclusive [inhibitor, full curve].

Q: For COc1ccccc1CCNS(=O)(=O)c1c(C)n(C)c(=O)n(C)c1=O, which Potency is on record?
A: The Potency was inconclusive [inhibitor, single point].

Q: With COc1ccc(-c2[nH]ncc2-c2ccc(Cl)cc2)c(O)c1 as the compound, how does the Potency read?
A: The Potency was inconclusive [inhibitor, single point].

Q: Cc1cc(NCc2ccco2)nc2cc(O)ccc12 was tested. Which Potency did it give?
A: The Potency was inconclusive [inhibitor, full curve].

Q: For Cc1cc(NC(=O)c2ccccc2)sc1C, which Potency is on record?
A: The Potency was inconclusive [inhibitor, single point].

Q: CO[C@@H]1COC(=O)C/C=C\[C@@H](C)COC(=O)[C@H](Cc2ccccc2)NC(=O)C/C=C\[C@H]1C was tested. Which activity change, negative = inhibition did it give?
A: Its activity change, negative = inhibition is inactive: 6.15% [at 11.4 µM].

Q: O=S1(=O)c2cccc3cccc(c23)N1Cc1nnc(-c2ccccc2Br)o1 was tested. Which “activity change, negative = inhibition” value did it give?
A: Its value is inactive: -5.63%.

Q: With CN(C)CCC=C1c2ccccc2C=Cc2ccccc21 as the compound, how does the Potency read?
A: Its Potency is inconclusive [inhibitor, single point].

Q: For CCc1nc2scc(-c3ccccc3)c2c(=O)n1N, which Potency is on record?
A: Its Potency is active: 20 µM.

Q: How did the Potency turn out when Fc1ccc(Nc2ccnc(-c3ccoc3)n2)cc1 was run?
A: Its Potency is inconclusive [inhibitor, single point].

Q: How did the Potency turn out when CN(C)c1[nH]c(=O)c(C#N)c2c1CCN2Cc1ccccc1 was run?
A: The Potency was inconclusive [inhibitor, single point].

Q: With COc1ccccc1NC=C1C(=O)OC(C)(C)OC1=O as the compound, how does the “activity change, negative = inhibition” value read?
A: Its value is inactive: -0.269%.

Q: How did the Potency turn out when O=C(Oc1ccccc1)N1CCC2(CCCN(c3ccncc3)C2)CC1 was run?
A: The Potency was inconclusive [inhibitor, full curve, poor fit].

Q: Which Potency does the source give for COc1ccc(CCNC(=O)CC2Nc3cc(C)c(C)cc3NC2=O)cc1OC (centres undefined) here?
A: The Potency was inconclusive [inhibitor, partial curve].

Q: CNNCc1ccc(C(=O)NC(C)C)cc1 was tested. Which Potency did it give?
A: The Potency was active: 7.94 µM.

Q: With Cc1sc2nc(C3CC3)nc(N3CCN(S(=O)(=O)c4ccc(F)cc4)CC3)c2c1C as the compound, how does the Potency read?
A: The Potency was inconclusive [inhibitor, single point].

Q: Which Potency does the source give for C/C(=C\C(=O)c1ccc(F)cc1)Nc1ccc(N2CCOCC2)cc1 here?
A: The Potency was inconclusive [inhibitor, single point].

Q: For COCCn1c(C)cc(C(=O)CSc2nc3ccccc3c(=O)[nH]2)c1C, which Potency is on record?
A: Its Potency is inconclusive [inhibitor, partial curve].

Q: Which Potency does the source give for C=CC(C1=CC(=O)C(OC)=C(OC)C1=O)c1ccccc1 (centres undefined) here?
A: The Potency was inconclusive [inhibitor, single point].

Q: How did the Potency turn out when COCCN(CCOC)c1nc(C)nc2c1nc(-c1ccccc1)n2CCCN(C)C was run?
A: Its Potency is inconclusive [inhibitor, single point].

Q: For COc1cc(N=c2ssnc2Cl)cc(OC)c1OC, which Potency is on record?
A: The Potency was active: 3.16 µM.

Q: CCCn1c(-c2ccc(F)cc2)nc2c(N3CCN(C)CC3)nc(C)nc21 was tested. Which Potency did it give?
A: Its Potency is active: 20 µM.

Q: For CC(C)Cn1c(N)c(C(=O)NCc2cccs2)c2nc3ccccc3nc21, which Potency is on record?
A: The Potency was inconclusive [inhibitor, partial curve].

Q: How did the “activity change, negative = inhibition” value turn out when O=C(Nc1cccc(-c2nc3ccccc3[nH]2)c1)c1ccco1 was run?
A: The value was inactive: -17.6%.

Q: With O=C(Nc1nnc(SCC(=O)N2CCCCC2)s1)c1cccs1 as the compound, how does the Potency read?
A: The Potency was inconclusive [inhibitor, single point].

Q: With CC(C)(C)c1ccc(Cn2nnc3c(=O)[nH]c(C4CCN(C(=O)Cc5cccs5)CC4)nc32)cc1 as the compound, how does the Potency read?
A: The Potency was inconclusive [inhibitor, partial curve].

Q: How did the Potency turn out when Cc1cc(C)c2cc(CN(CCO)C(=O)Nc3ccc(Cl)cc3)c(=O)[nH]c2c1 was run?
A: Its Potency is inconclusive [inhibitor, single point].

Q: With COC(=O)C1=CN(C(C)C)C=C(C(=O)OC)C1c1cc2c(cc1Br)OCO2 as the compound, how does the Potency read?
A: Its Potency is inconclusive [inhibitor, single point].

Q: With COc1ccc(N2CCN(C(=O)c3ccc(NS(=O)(=O)c4ccc(F)cc4)cc3)CC2)cc1 as the compound, how does the Potency read?
A: The Potency was inconclusive [inhibitor, partial curve].

Q: O=S(=O)(c1cccs1)N1CN(CC2CCCO2)c2nc3ccccc3nc21 (centres undefined) was tested. Which “activity change, negative = inhibition” value did it give?
A: Its value is inactive: -12.7%.

Q: How did the Potency turn out when O=C(CSc1nc2scc(-c3ccco3)c2c(=O)n1-c1ccccc1)NCC1CCCO1 (centres undefined) was run?
A: The Potency was inconclusive [inhibitor, partial curve].

Q: For CN1CCc2c(sc3c2C(=O)NC(c2ccco2)N3)C1 (centres undefined), which Potency is on record?
A: The Potency was inconclusive [inhibitor, partial curve].

Q: COc1ccc(-n2c(=O)cnc3cnc(OC)nc32)cc1 was tested. Which “activity change, negative = inhibition” value did it give?
A: The value was inactive: -2.48%.

Q: For Cc1ccc2c(c1)c1c(n2CC(O)Cn2c(C)nc3ccccc32)C(=O)CCC1 (centres undefined), which “activity change, negative = inhibition” value is on record?
A: Its value is inactive: -2.35%.

Q: Which “activity change, negative = inhibition” value does the source give for C=C(C)OC(C)=O here?
A: Its value is inactive: -4.43%.

Q: How did the Potency turn out when COc1ccc(-c2cc(C(F)(F)F)n3nc(C(=O)NCc4ccco4)cc3n2)cc1 was run?
A: The Potency was inconclusive [inhibitor, partial curve].

Q: For C=C(C)Cn1c(N2CCC(Cc3ccccc3)CC2)nc2c1c(=O)[nH]c(=O)n2C, which Potency is on record?
A: The Potency was inconclusive [inhibitor, single point].

Q: With C=C1CCC2C(CC2(C)C)C(=C)CC/C1=N/O (centres undefined) as the compound, how does the “activity change, negative = inhibition” value read?
A: The value was inactive: 0.402%.

Q: Cc1nc(CC(=O)Nc2nc(-c3ccccc3)cs2)cs1 was tested. Which “activity change, negative = inhibition” value did it give?
A: Its value is inactive: -39.3%.

Q: For O=C(Nc1ccc(Cl)cc1C(=O)O)c1ccc2c(c1)C(=O)N(Cc1ccco1)C2=O, which Potency is on record?
A: The Potency was inconclusive [inhibitor, single point].

Q: How did the Potency turn out when CCOC(=O)CN1Cc2cccc(C(=O)O)c2C1=O was run?
A: The Potency was inconclusive [inhibitor, single point].

Q: How did the Potency turn out when CC1=C(/C=C/C(C)=C/C=C/C(C)=C/C(=O)Nc2ccc(O)cc2)C(C)(C)CCC1 was run?
A: Its Potency is inconclusive [inhibitor, full curve].

Q: How did the Potency turn out when CCOc1ccc2nc3c(cc2c1)CN(CCCO)C(=NCCOC)S3 was run?
A: The Potency was inconclusive [inhibitor, single point].

Q: CCN(CC)C(=O)C(C)N(C#N)c1nc(SC)nc(N(C)C)n1 (centres undefined) was tested. Which Potency did it give?
A: Its Potency is inconclusive [inhibitor, single point].

Q: For Oc1ccccc1-c1cc(C(F)(F)C(F)F)[nH]n1, which Potency is on record?
A: The Potency was inconclusive [inhibitor, partial curve].

Q: For O=C(c1cc(-c2cccs2)on1)N1CCN(c2ccccc2)CC1, which Potency is on record?
A: The Potency was inconclusive [inhibitor, single point].

Q: For COc1ccccc1-c1coc2cc(O)cc(O)c2c1=O, which Potency is on record?
A: The Potency was inconclusive [inhibitor, partial curve].

Q: With O=C(C1CC1)N1CCc2cc(S(=O)(=O)NCCC3=CCCCC3)ccc21 as the compound, how does the Potency read?
A: Its Potency is inconclusive [inhibitor, partial curve].

Q: For COc1ccc2nc(SCC(=O)Nc3ccc(S(=O)(=O)N4CCCC4)cc3)c(C#N)cc2c1, which “activity change, negative = inhibition” value is on record?
A: Its value is inactive: -1.22%.

Q: CCCCCCCCCCC(C)(C)C(=O)Nc1c(OC)cc(OC)cc1OC was tested. Which Potency did it give?
A: The Potency was inconclusive [inhibitor, single point].

Q: For COc1ccc2ccccc2c1C1CC(=O)N2CN(C)CSC2=C1C#N (centres undefined), which Potency is on record?
A: Its Potency is inconclusive [inhibitor, full curve].

Q: How did the “activity change, negative = inhibition” value turn out when Cc1nc(NCc2ccccc2)c2nc(-c3ccccc3)n(C3CCN(Cc4ccccc4)C3)c2n1 (centres undefined) was run?
A: The value was inactive: 2.61%.
